Data published in PubChem BioAssay (NCI).
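Method: 48-hour compound exposure of cells in 96-well plates, five concentrations, linear interpolation of endpoints. GI50: concentration for 50% inhibition of growth. TGI: concentration producing complete growth inhibition.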

test system: NCI-H322M lung; assay: growth of human tumour cells (NCI), 48 h

| Structure (SMILES) | GI50 [µM] | TGI [µM] |
| --- | --- | --- |
| COc1ccccc1[C@H]1C(C(=O)c2ccc(Cl)cc2)C2(N[C@@H]1c1ccccc1)C(=O)Nc1ccc(Cl)cc12 (stereo partly specified) | 12.9 | > 57.5 |
| COc1cc(/C=C/C(=O)c2cnn(-c3cc(=O)[nH]c4ccccc34)c2C)cc(OC)c1OC | 4.18 | > 100 |
| CC[C@@]12CC(C(=O)OC)=C3Nc4cc5c(cc4[C@@]34CCN(C[C@H]3O[C@H]31)[C@@H]24)[C@@H]1[C@H](O5)[C@@H](O)[C@@]2(CC)CC(C(=O)OC)=C3Nc4cc(OC)ccc4[C@@]34CCN1[C@@H]24 | 0.514 | > 54 |
